Source: publication PMC4336329 (PLoS ONE, 2015)
About 14,000 (4.5%) of roughly 310,000 compounds showed an effect of 50% or more. Effects have a minus sign here. The list shows a part of the results.

Each molecule was assayed against human ether-à-go-go-related gene (hERG) potassium channel (human, UniProt Q12809) (assay: primary screen, population patch clamp on CHO cells stably expressing hERG).
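Note: peak tail current of the secondary pulse compared with the same well before compound.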

human ether-à-go-go-related gene (hERG) potassium channel, sequence (Q12809 whole entry, looked up): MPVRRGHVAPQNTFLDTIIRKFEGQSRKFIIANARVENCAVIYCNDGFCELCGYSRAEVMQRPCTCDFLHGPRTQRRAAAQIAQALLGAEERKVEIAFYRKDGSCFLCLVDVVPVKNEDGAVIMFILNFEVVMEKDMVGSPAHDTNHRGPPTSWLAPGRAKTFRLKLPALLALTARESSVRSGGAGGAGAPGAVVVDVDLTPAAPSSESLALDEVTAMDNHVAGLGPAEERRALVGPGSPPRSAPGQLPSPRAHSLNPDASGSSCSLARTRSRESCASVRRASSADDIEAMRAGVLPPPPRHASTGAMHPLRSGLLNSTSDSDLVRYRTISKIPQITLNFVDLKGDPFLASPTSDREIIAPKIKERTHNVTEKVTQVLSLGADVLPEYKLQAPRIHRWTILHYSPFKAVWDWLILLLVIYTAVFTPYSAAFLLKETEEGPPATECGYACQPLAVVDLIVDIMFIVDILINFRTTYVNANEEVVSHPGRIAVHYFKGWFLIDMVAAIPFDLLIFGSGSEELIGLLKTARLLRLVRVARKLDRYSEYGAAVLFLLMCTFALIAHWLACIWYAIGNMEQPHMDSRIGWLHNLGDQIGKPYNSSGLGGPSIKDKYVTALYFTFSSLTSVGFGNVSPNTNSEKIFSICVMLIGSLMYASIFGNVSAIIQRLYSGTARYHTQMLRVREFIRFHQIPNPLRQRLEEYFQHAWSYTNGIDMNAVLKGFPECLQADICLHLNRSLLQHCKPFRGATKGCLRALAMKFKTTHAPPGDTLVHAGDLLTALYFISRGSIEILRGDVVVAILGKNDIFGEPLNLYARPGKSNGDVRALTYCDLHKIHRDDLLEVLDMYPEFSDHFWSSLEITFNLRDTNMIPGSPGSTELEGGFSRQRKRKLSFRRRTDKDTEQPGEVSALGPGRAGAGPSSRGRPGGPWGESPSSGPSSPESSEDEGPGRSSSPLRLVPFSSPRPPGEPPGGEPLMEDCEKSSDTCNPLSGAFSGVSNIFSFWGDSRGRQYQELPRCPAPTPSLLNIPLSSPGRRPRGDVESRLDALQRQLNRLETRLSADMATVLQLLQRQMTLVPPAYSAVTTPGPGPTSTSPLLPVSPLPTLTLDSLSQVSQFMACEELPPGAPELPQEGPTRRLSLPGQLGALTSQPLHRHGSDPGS

Row | SMILES | hERG current change (%, negative = inhibition) at 10uM
1 | Cn1c(O)c(C(=O)c2ccccc2Cl)c(=O)n(C)c1=O | -6.25%
2 | Cc1cc(C)n(CCC(=O)N2CCc3ccccc32)n1 | 2.96%
3 | Nc1ncc(Br)cc1S(=O)(=O)NCCC(=O)N1CCN(c2ccccn2)CC1 | -55.4%
4 | Cc1cc2oc(=O)cc(CN3CCCCC3C)c2c(C)c1Cl (stereo not shown) | 11%
5 | CSc1ccc(C(=O)C2CCCN(CCCn3cccn3)C2)cc1 (stereo not shown) | -76.8%
6 | O=C(c1ccccc1)C1CCc2occc2C1=O (stereo not shown) | -12.2%
7 | CC(=O)c1cccc(NC(=S)NC2CCCCCCC2)c1 | 9.26%
8 | Cc1onc(-c2ccccc2)c1NC(=O)Nc1c(-c2ccccc2)noc1C | 8.89%
9 | CC(=O)N/C(=C\c1ccc2c(c1)OCO2)C(=O)NC(C(=O)O)c1ccccc1 (stereo not shown) | 18.8%
10 | Nc1nc(SCC(=O)Nc2ccccc2C(F)(F)F)[nH]c(=O)c1-c1ccccc1 | 7.7%
11 | O=C(Nc1cccc(C(=O)O)c1)/C(=C/c1ccc2c(c1)OCO2)NC(=O)c1cccc(Br)c1 | 7.35%
12 | CSCCC(NC(N)=O)C(=O)NCc1ccc(Cl)cc1 (stereo not shown) | 5.44%
13 | C[C@H](NC(=O)c1ccc2c(c1)OCO2)c1nnc2ccccn12 | 15.6%
14 | COCCCN1C(=O)c2ccc(C(=O)OCC(=O)NCCc3ccccc3)cc2C1=O | 5.99%
15 | O=C(Cc1c(F)cccc1Cl)Nc1ccccc1C(=O)N1CCOCC1 | 3.32%
16 | Cc1cccc(C)c1OCc1cc(C(=O)N2CCN(c3ccc(F)cc3)CC2)no1 | 5.65%
17 | CN(C)CCNC(=O)C(=O)NCC1OCCN1S(=O)(=O)c1cc(F)ccc1F (stereo not shown) | 9.66%
18 | Cc1ccc(NC(=O)CSc2nnc(Cc3ccccc3)c(=O)[nH]2)c(C)c1 | -51.4%
19 | Cc1noc(C)c1CSCC(=O)Nc1nc2ccc(S(C)(=O)=O)cc2s1 | 14.6%
20 | CCCNC(=O)c1n[nH]c2c1CC(C(C)(C)CC)CC2 (stereo not shown) | 1.27%
21 | Cn1c(C(=O)N2CCC(C(=O)N3CCOCC3)CC2)cc2sccc21 | 7.59%
22 | Cc1ccc(CNC(=O)C2CCN(c3nc(C)cc(C)n3)CC2)cc1 | -5.54%
23 | Cc1ccccc1NC(=O)C1CCN(S(=O)(=O)c2cccs2)CC1 | -12.5%
24 | O=C(O)c1cnc2ccccc2n1 | 19.8%
25 | Clc1ccc(OCC#CCN2CCCC2)cc1.O=C(O)C(=O)O | -27.4%
